{"source": "PubChem BioAssay AID504832", "about": "(National Center for Advancing Translational Sciences (NCATS), 2011)", "note": "Out of some 310,000 compounds screened, about 18,000 (5.8%) were called active. Inconclusive means that the source gave no clear call. Such entries were picked first, then a sample of the others. Calls follow the shape of the dose curve; as a rule, active = well fitted inhibition curve with a large enough effect; inconclusive = small, poorly fitted or top-dose-only effect, or another doubt; inactive = no such curve, though single readings can be large or run the other way. No potency is given beside an inconclusive call; the fits are too rough. % is scaled to controls: 0 for no effect and ±100 for the full control effect; potency is read from the fitted curve at half-maximal effect; tags tell the direction and shape of the fitted curve."}
{"assay": "Primary qHTS for delayed death inhibitors of the malarial parasite plastid, 48 hour incubation", "settings": "P. falciparum luciferase growth in erythrocytes; series mostly up to 28.7 µM; activity change, negative = inhibition: at the top concentration", "in_short": "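A one-generation exposure of luciferase-tagged malaria parasites in RPMI 1640/Albumax erythrocyte culture, 37 C and 5% CO2. Inhibition is inferred from decreased luminescence after adding detection reagent.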"}
{"smiles": "Cc1cc(C)c(S(=O)(=O)Nc2cc(C)on2)c(C)c1", "activity change, negative = inhibition": "inactive: 0.308%"}
{"smiles": "COCCn1c(SCC(=O)N2CCC(C)CC2)nc2c([nH]c3ccccc32)c1=O", "Potency": "inconclusive [inhibitor, partial curve]"}
{"smiles": "CC(=O)c1ccc(Nc2cc(C)nc3ncnn23)cc1", "Potency": "inconclusive [inhibitor, single point]"}
{"smiles": "Cc1nc(CN(C)C(=O)c2ccccc2OC2CCN(S(C)(=O)=O)CC2)cs1", "activity change, negative = inhibition": "inactive: -1.24%"}
{"smiles": "COc1cccc(OCC(O)CN2CCN(CCN3C(=O)c4cccc5cccc(c45)C3=O)CC2)c1", "note": "(stereo not given)", "Potency": "inconclusive [inhibitor, partial curve]"}
{"smiles": "O=C(NC1C=CS(=O)(=O)C1)c1sc2ccccc2c1Cl", "note": "(stereo not given)", "Potency": "active: 8.28 µM"}
{"smiles": "Cc1ccc(C(=O)O/N=C(\\N)c2ccccn2)c(Cl)c1", "Potency": "inconclusive [inhibitor, full curve, poor fit]"}
{"smiles": "O=C(Nc1ccc(N2CCOCC2)cc1)c1cc(F)c(F)cc1Cl", "activity change, negative = inhibition": "inactive: 33.1%"}
{"smiles": "COc1cccc(NC2=Nc3cccc4cccc2c34)c1", "activity change, negative = inhibition": "inactive: 15.3%"}
{"smiles": "COC(=O)c1cc(N=C(N)N=C(N)N)cc(C(=O)OC)c1", "Potency": "inconclusive [inhibitor, partial curve, poor fit]"}
{"smiles": "CC/C=C/C(=O)N1CC2(CC(c3cccc(NC(=O)CCCCC)c3)=NO2)C[C@H]1C(N)=O", "note": "(stereo not given in full)", "Potency": "inconclusive [inhibitor, single point]"}
{"smiles": "COc1cccc(C2c3[nH]c4ccccc4c3C[C@H]3C(=O)N(C)CC(=O)N23)c1", "note": "(stereo not given in full)", "Potency": "active: 7.38 µM"}
{"smiles": "O=C(CSc1nccn1Cc1ccco1)Nc1ccccc1", "activity change, negative = inhibition": "inactive: 39.6%"}
{"smiles": "COc1ccc(OCC(=O)O/N=C(\\N)Cc2cccs2)cc1", "activity change, negative = inhibition": "inactive: 28%"}
{"smiles": "COc1ccccc1NC(=O)Nc1nc(CC(=O)NC2CCCC2)cs1", "Potency": "inconclusive [inhibitor, single point]"}
{"smiles": "S=C(NCCc1ccccc1)NCC(c1ccco1)N1CCCCC1", "note": "(stereo not given)", "Potency": "inconclusive [inhibitor, partial curve]"}
{"smiles": "COc1ccc(N2C(=O)N3[C@H](c4cccc(C)c4)[C@@H]4C(=O)N(Cc5ccccc5)C(=O)[C@@H]4[C@]3(Cc3ccccc3)C2=O)cc1", "Potency": "inconclusive [inhibitor, single point]"}
{"smiles": "O=C(Nc1nc2c(s1)CCCC2)c1nn(Cc2ccccc2)c(=O)c2ccccc12", "Potency": "inconclusive [inhibitor, single point]"}
{"smiles": "COc1cc(C=C(c2nc3ccccc3s2)c2nc3ccccc3s2)cc(OC)c1O", "Potency": "inconclusive [inhibitor, single point]"}
{"smiles": "Cc1cc(C)c(S(=O)(=O)c2c(C)cccc2C)c(OCC(C)C)n1", "Potency": "active: 11.7 µM"}
